Experimental data as given in the RNAGym collection of RNA variant scans (doi:10.7554/elife.90254).
The source gives no read counts; variants with many changes may rest on few reads.

B1: LINE1-mini (parent)
chain: GGCAGAGCUCAACACAGCGUGGCAAAGUGGCUGUGGCUAGACUGCC

Variants of: B1
Test: self-cleavage, relative activity (ratio to wild type); higher = more cleavage; in vitro, sequencing; the parent is a self-cleaving ribozyme

Variant | self-cleavage
GGCAGAGCUAAACACAGCGUGGCAAAGAGGCUGUGGCUGGACUGCC [C10A U28A A39G] | 0.01
GGCAGAGCUCAAUACAGCGUUGCAAAGUUGCUGUGGCUAGAUUGCG [C13U G21U G29U C42U C46G] | 0.04
GGCAGAACGCAACAAAGCGUGGCAAAGUGGCUGUGGCUAGACUGCC [G7A U9G C15A] | 0.01
GGCAGAGCUCCACAAAGCGUGGCAAAGUGGCUGUGGAUAUACUGCC [A11C C15A C37A G40U] | 0
GGCAGAGCUCAACACAGUGUGGCAAAUUGGGUGUGGCUGGACUGCC [C18U G27U C31G A39G] | 0.01
GUCAGAGCUCAACAAAGAGUGGCAAAGUGGCUCUGGCUAGACUGCC [G2U C15A C18A G33C] | 0.01
GGUAGAGCUCAACACAGCGUGGCAAAGUAGCUGUGGCUAGACUGGC [C3U G29A C45G] | 0.07
GGCAUAGCUCAACACAGCGUGGUAAAGUGGUUUUGGCUAGACUGCC [G5U C23U C31U G33U] | 0.07
GGCAGAGCCCAACACAGCGUAGGAAACUGGCUGUGGCUAGACUUCU [U9C G21A C23G G27C G44U C46U] | 0.01
GGCGGAGCUCAAAACAGCGUGGCAAAUUGGCUGUGGCUAGACUGCC [A4G C13A G27U] | 0.06
GGCAGUGCUCAACAUAGCGUGACAAAGUGGCUGUGGAUAGACUGCC [A6U C15U G22A C37A] | 0.12
GGCAGAGCUCAACACAGCGUGGCAAAGUUGAUGUGGCUAGCCUGCC [G29U C31A A41C] | 0.04
GGCACGGCUCAUCACAGCGUUGCAAAGUGGCUGUGGCAAGACUGCC [G5C A6G A12U G21U U38A] | 0
GGCAGAGCUCAACACAGCCUGUCACAGUGGCUGUGGCUAGACUGCU [G19C G22U A25C C46U] | 0.21
GGUAGAGCUCAACACAGCGUGGCAAGGUGGCUGUGGCUAGAUUGUC [C3U A26G C42U C45U] | 0.07
GGUAGAGCACAACACAGCGUGGCAUAGUGGCUGUGGCUAGACUGCC [C3U U9A A25U] | 0.12
GGCGGAGCUCAACAGAGCGUGGCAAAGUGCCUGUGGCUAGACUGCC [A4G C15G G30C] | 0.07
GGCAGUGCUCAACACAGUGUGGCAAAUUAGCUGUGGCUAGACUGCC [A6U C18U G27U G29A] | 0.06
GGCAGAGCUCAACACAGCGUGGCAACGUGUCUGAGGCUAGACUGCA [A26C G30U U34A C46A] | 0.02

Variant | self-cleavage
GGCAGAGCUCAACACAGCGUGUCAAAGUGGCGGUGGCUAGACUGGC [G22U U32G C45G] | 0.75
GGCAGAGCUCAACACAGAGUGGCAAAGUGGAUGUAGCUAGACUCCC [C18A C31A G35A G44C] | 0.02
GGCAGAGCUCAUCACAGCGUGGCAAAGCGGCUUUGGCUAGACUGCC [A12U U28C G33U] | 0.01
GGCAGAACUCAACACAGCGUGGCAAAGUGGCUAUGGCUAGAAUACC [G7A G33A C42A G44A] | 0.14
GGCAGAGCUCAACACAGCGUGCCAAAGUGGCGGUGGCUAGAUUGCC [G22C U32G C42U] | 0.04
GGCACAGCUCACCAUACCGUGGCCAAGUGGCUGUGGCUAGACUGCC [G5C A12C C15U G17C A24C] | 0.03
GGCAGAGCUCAACACAGCGUGCCACACUGGCUGUGGCUAGACUGCC [G22C A25C G27C] | 0.94
GGCAGAGCUUAACACAGCGUGGCAAAGUGGCUGUGGCUAGUCUACC [C10U A41U G44A] | 0.05
GGCGGAGCUCAACACAGCGUGGCAAAGUGGCUGUGGCAAGACUGCA [A4G U38A C46A] | 0.09
GGCAGAGCUCAACACAGCAUGGCUAAGUGGCUAUGGCUAGACUGCC [G19A A24U G33A] | 0.12
GGCAGAGCUCUACAGAGCGUGGCAAAGUGGCUGUGGCUAGAUUGCC [A11U C15G C42U] | 0
GGCACGGCUCAACACAGCGUGGCAAACUUGCUGUGGCUAGACUGCC [G5C A6G G27C G29U] | 0.02
GGCAGAGCUCAACAGAUCGUGGCAAACUGGCUGUGGCUAGACUGCC [C15G G17U G27C] | 0.17
GGCAGCGCUCAACACAGCGUGGCAAAGUGGCUGUGGAUAGACUGCU [A6C C37A C46U] | 0.04
GGCAGAACUCAACACAGCGUCGCAAAGUGGCUGUUGCUAGUCUGCC [G7A G21C G35U A41U] | 0.13
UGCAGAGCUCAACGCAGCGUGGCAAAGUUGCUGUGGCUAGACUGCC [G1U A14G G29U] | 0.3
GGCAGGGCUCAACCCAGCGUGGCAAAGUGGCUGUGGCUAGGCUGCC [A6G A14C A41G] | 0.03
AGCAGAGCUCAACAUAGCGUGGCCAAGUGGCUGUGGCUAGACUUGC [G1A C15U A24C G44U C45G] | 0.07
GGCUGACCUGAAAACAGCGCGGCAAAGAGGCUAUGGCUAGACUGUC [A4U G7C C10G C13A U20C U28A G33A C45U] | 0.02

Variant | self-cleavage
GGCAGAGCUCAACACAGCGUGGCAAAGUGGCUGUGGCUAGAAUCCU [C42A G44C C46U] | 0.23
GGGAAACCUCAACACAGCGUGGCAAAGUGGCUGUGGCUAGACUGCC [C3G G5A G7C] | 0.06
GGCAGAGCUCAAGACAGCGUGGCAAAGUGGCUUUGGCUAGACAGCC [C13G G33U U43A] | 0.04
GACACAGCUCAACACAGCUUGGCAAAGUGGCUGUGGCAAGACUGCC [G2A G5C G19U U38A] | 0.03
GGCAGACCUCAACACAGCGUGGCAAAGUGGCUCUGGCUAGACUGCU [G7C G33C C46U] | 0.03
AGCAUAGCUCAACACAGCGUGGCAAAGUGGCUGUGGAUAGACUGCU [G1A G5U C37A C46U] | 0.01
AGGAGAGCUCAACACAGCGUGGCAAAGUGGCUGUGGCUACACCGCC [G1A C3G G40C U43C] | 0.18
GGUAGAGCUCAAGACAGCGUGGCAAAGUGGGUGUGGCUAGACUGCC [C3U C13G C31G] | 0.1
GGCAGAGCUCAACACAGCGUUGCAAAGAGGCUGUGGUUAGACUGCC [G21U U28A C37U] | 0.02
GGCAGAGCUCAACACAGCGUGGCAAAGUUGCUGUGGCUAUAAUGCC [G29U G40U C42A] | 0.04
GGCAAAGCUCAACGCAGCUUGGGAAAGUGGCUGUGGCUAGACUGAC [G5A A14G G19U C23G C45A] | 0.02
GGCAGAGCUCAACACAGCGAGACAAAGGGGCUGCGGCUAGACUGCC [U20A G22A U28G U34C] | 0.1
GGCAGAGCUCAACACAUCGUGGCAAAGUGGCUGUGGGUACACUGCC [G17U C37G G40C] | 0.01
GGGAGAGCUCAACACAGCGGGGCAAAGUGGCUCUGGCCAGACUGCC [C3G U20G G33C U38C] | 0.04
GGCAGAGCUCACCACAGCGUGGCAAAGUGACUGUGGGUAGACUGCC [A12C G30A C37G] | 0.01
AGCAGAGCUCGACACAGCGUGGCAAAGUGGCCGUGGCUAGACUGCC [G1A A11G U32C] | 0.04
GGCAGAGCUAAACACAGCGUGGCAAAGUGGCGGUGGCUUGAUUGCC [C10A U32G A39U C42U] | 0.02
GGCAGAGCUGAGCACAGCGUGGCAAAGCCGCUGUGGCUAGAUUGCC [C10G A12G U28C G29C C42U] | 0
